Measurements: PubChem BioAssay AID2147 (National Center for Advancing Translational Sciences (NCATS), 2009)
In all, about 230,000 compounds went through this assay and about 3,600 (1.6%) were called active. Inconclusive means that the source gave no clear call. Such entries were picked first, then a sample of the others. Calls come from the whole dose curve; as a rule, active = well fitted inhibition curve with a large enough effect (not every such curve was filed as active); inconclusive = small, poorly fitted or top-dose-only effect, or another doubt; inactive = no such curve, though single readings can be large or run the other way. A potency beside an inconclusive call is a rough fit, not a confirmed value.

Molecular target: Lysine-specific demethylase 4E (Homo sapiens) (UniProt B2RXH2)
Assay: qHTS Assay for Inhibitors of Human Jumonji Domain Containing 2E (JMJD2E)
Conditions: JMJD2E catalytic domain, FDH-coupled NADH fluorescence (FDH is formaldehyde dehydrogenase); series mostly up to 57.1 µM; activity change, negative = inhibition: at the top concentration
Note: nearly all actives have a fitted effect of over 50% in size.
Potency is the fitted concentration of half-maximal effect; tags give direction and shape of the fitted curve.
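Throughout, for activity change, negative = inhibition: 0% = wells with enzyme and -100% = buffer wells without enzyme.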

UniProt B2RXH2, sequence (B2RXH2 whole entry, looked up, the tested form may be a part): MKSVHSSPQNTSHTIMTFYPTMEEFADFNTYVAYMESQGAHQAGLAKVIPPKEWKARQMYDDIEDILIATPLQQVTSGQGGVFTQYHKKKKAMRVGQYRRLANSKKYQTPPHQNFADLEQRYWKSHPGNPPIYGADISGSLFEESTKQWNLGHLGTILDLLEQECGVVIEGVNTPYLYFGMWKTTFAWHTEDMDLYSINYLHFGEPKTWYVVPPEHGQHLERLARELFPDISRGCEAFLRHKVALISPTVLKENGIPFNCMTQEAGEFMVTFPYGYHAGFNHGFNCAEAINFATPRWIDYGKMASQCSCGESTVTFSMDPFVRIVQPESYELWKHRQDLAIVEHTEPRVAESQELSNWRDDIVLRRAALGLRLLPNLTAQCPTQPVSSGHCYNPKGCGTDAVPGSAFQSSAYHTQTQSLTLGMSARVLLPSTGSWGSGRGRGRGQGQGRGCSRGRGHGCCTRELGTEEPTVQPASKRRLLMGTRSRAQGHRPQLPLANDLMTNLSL

Row | SMILES | Potency | activity change, negative = inhibition
1 | CCCn1c(=O)[nH]c2nc(-c3ccc(S(=O)(=O)O)cc3)[nH]c2c1=O | inconclusive: 2.82 µM [inhibitor, full curve] | –
2 | CCOC(=O)c1ccc(NCC(O)COc2ccccc2)cc1 (centres undefined) | – | inactive: 1.06%
3 | Cc1nc2c(C(=O)N3CCOCC3)cnn2c(C)c1Cc1cccc(Cl)c1 | inconclusive: 28.2 µM [inhibitor, partial curve] | –
4 | CN1C(=O)/C(=C\c2ccccc2)Sc2ccc(C(=O)N3CCN(c4ccccn4)CC3)cc21 | inconclusive: 39.8 µM [inhibitor, single point] | –
5 | Fc1cccc(/C=N/Nc2ccc3ccccc3n2)c1 | inconclusive: 31.6 µM [inhibitor, single point] | –
6 | CC(Cc1ccc(O)c(O)c1)(NN)C(=O)O (centres undefined) | active: 2.24 µM | –
7 | Cc1nc2c(C(=O)NCCC(C)C)c[nH]n2c(=O)c1Cc1ccccc1F | inconclusive: 35.5 µM [inhibitor, single point] | –
8 | CCN1/C(=C(\O)c2ccccc2)C(=O)c2ccccc2S1(=O)=O | inconclusive: 28.2 µM [inhibitor, single point] | –
9 | N#C/C(=C\c1ccco1)C(=O)NCc1ccccc1 | – | inactive: -0.493%
10 | CS(=O)(=O)N1CCN(C(=O)c2cc(-c3cccs3)nc3ccccc23)CC1 | inconclusive: 20 µM [inhibitor, partial curve] | –
11 | COC(=O)c1ccccc1NC(=O)Nc1cnccn1 | inconclusive: 39.8 µM [inhibitor, single point] | –
12 | CCc1sc2nc(SCC(=O)Nc3cc(C)on3)n(-c3cccc(OC)c3)c(=O)c2c1C | inconclusive: 10 µM [inhibitor, partial curve] | –
13 | COc1ccc(NC(=O)CCCSc2ccccc2)cc1 | – | inactive: -6.37%
14 | CC(C)(C)c1csc(NC(=O)Cc2cccs2)n1 | – | inactive: -15.6%
15 | Cc1ccsc1/C=C/C1=NCCCN1C | inconclusive: 39.8 µM [inhibitor, single point] | –
16 | CC1CN(c2c3c(nc4ncnn24)CCCC3)CC(C)O1 (centres undefined) | – | inactive: -3.64%
17 | CC1(C)CC(=O)C(C=Nc2ccc(N)cc2)=C(O)C1 | inconclusive: 25.1 µM [inhibitor, single point] | –
18 | CCOC(=O)c1c(NC(=S)Nc2ccccc2)sc2c1CCN(CC)C2 | inconclusive: 28.2 µM [inhibitor, partial curve] | –
19 | N#Cc1ccc(-c2csc(NC3=NCCCCC3)n2)cc1 | inconclusive: 35.5 µM [inhibitor, single point] | –
20 | CC(=O)[C@@H]1[C@@H]2C(=O)N(C3CCCCC3)C(=O)[C@@H]2C2c3ccccc3C=CN21 (some centres undefined) | inconclusive: 28.2 µM [inhibitor, partial curve] | –
21 | C=CCOc1c(Br)cc(CNc2nccs2)cc1OC | – | inactive: -3.03%
22 | COc1ccc2c(c1)NC(c1ccc(N(C)C)cc1)c1cccn1-2 (centres undefined) | inconclusive: 12.6 µM [inhibitor, partial curve] | –

Row | SMILES | Potency | activity change, negative = inhibition
23 | CCCC(=O)OCC(=O)Nc1ccc(N=Nc2ccccc2)cc1 | – | inactive: -10.7%
24 | Cc1cccc(C)c1OCc1nnc(SCC(=O)Nc2nccs2)o1 | inconclusive: 20 µM [inhibitor, single point] | –
25 | CCN1CCN(Cc2c(O)ccc3c2O/C(=C\c2ccccc2)C3=O)CC1 | inconclusive: 35.5 µM [inhibitor, single point] | –
26 | COC(=O)c1cc(NC(=O)c2c(-c3c(Cl)cccc3Cl)noc2C)ccc1N1CCOCC1 | inconclusive: 35.5 µM [inhibitor, single point] | –
27 | O=C(c1cnc2sccn2c1=O)N1CCc2ccccc2C1 | inconclusive: 28.2 µM [inhibitor, partial curve] | –
28 | C=CCNC(=O)c1onc(CSc2ccc(C(C)C)cc2)c1C(=O)O | – | inactive: -4.37%
29 | Cc1nc2cccc(C(=O)NC3CCCCC3)c2o1 | inconclusive: 39.8 µM [inhibitor, single point] | –
30 | COc1ccc(-n2c(=S)[nH]c3cc(C(=O)Nc4ccccc4OC)ccc3c2=O)cc1 | – | inactive: 2.32%
31 | CN1CCC(C(=O)N2CCCC(C(=O)c3ccc4c5c(cccc35)CC4)C2)CC1 (centres undefined) | inconclusive: 35.5 µM [inhibitor, partial curve] | –
32 | CCC(=O)Nc1ccc2nc(C3CC3)n(Cc3ccc(C(C)(C)C)cc3)c(=O)c2c1 | inconclusive: 39.8 µM [inhibitor, single point] | –
33 | COCC(C)NC(C(=O)Nc1ccc(Cl)c([N+](=O)[O-])c1)c1ccccc1 (centres undefined) | inconclusive: 35.5 µM [inhibitor, single point] | –
34 | CCOC(=O)COc1cccc2c(=O)n(CC(=O)NCc3ccc(F)cc3)ccc12 | inconclusive: 31.6 µM [inhibitor, single point] | –
35 | COc1ccc([C@@H]2C=C(C(=O)O)O[C@H](OCCCCO)C2)cc1 | inconclusive: 25.1 µM [inhibitor, single point] | –
36 | Oc1ccccc1-c1nnc(SCCN2CCOCC2)n1Cc1ccccc1 | inconclusive: 39.8 µM [inhibitor, single point] | –
37 | Cc1cc(-c2ccccc2)nc2oc3c(c12)NC(=O)CN(c1ccccc1)C3=O | inconclusive: 39.8 µM [inhibitor, single point] | –
38 | Cc1oc(-c2ccccc2Cl)nc1CSCC(=O)N1CCCC1 | – | inactive: -3.1%
39 | N#C/C(=C\c1c(N2CCOCC2)nc2ccccn2c1=O)C(=O)NC1CCS(=O)(=O)C1 (centres undefined) | inconclusive: 25.1 µM [inhibitor, partial curve] | –
40 | Cc1csc2ncc(C(=O)NCCC(c3ccccc3)c3ccccc3)c(=O)n12 | inconclusive: 31.6 µM [inhibitor, partial curve] | –
41 | Cc1cc(F)ccc1S(=O)(=O)Nc1ccccc1C(=O)NCc1ccccn1 | inconclusive: 28.2 µM [inhibitor, partial curve] | –
42 | Cc1ccc(NC(=O)CSC2=C(C#N)C(c3ccco3)C3=C(CCCC3=O)N2)cc1 (centres undefined) | inconclusive: 35.5 µM [inhibitor, single point] | –
43 | Cc1ccc(-c2cnc(NC(=O)c3cccc(Br)c3)s2)c(C)c1 | inconclusive: 35.5 µM [inhibitor, single point] | –
44 | Oc1ccc(/C=N/NC(=S)NC2CC3CCC2C3)cc1 (centres undefined) | – | inactive: -12.7%
